Test results taken from the supplement of paper PMC12632987.
Whole data set: some 4,500 sequences, median “median log2 fold change of GCK-ALFA target abundance (FLAG IP / Myc IP barcode read proportion)” near 0.078, cut for the lowest 2% near -0.6. The list shows a part of the results.

B1: GBRAP_78_6581 (protein)
chain: EVEEEFDKAMEHLGEAAKLARQFPQEVRDELLYLLVEAASYLLEAEEEGFDLEELEKALEALEKALKLAKQLDTPVAKELSKELEKAIEHLKKAIELLKK
B2: GBRAP_128_3351 (protein)
chain: LDEEKLEKVRKMAEEMVKADVEKTYELMKELAAFIGTLDDETAEAAAEIVIEYLPKFTKEQLDAIADALREMRPTLDPFKANLAAEVEVEALNEAEELEE
B3: GBRAP_26_5498 (protein)
chain: FIDEVLRELREEIRRILADESPELQAAVIAEAEDLLLEAEEEIEENVDDEEKIKEAIERAVEELREDLERFGLSEEKVERIVEALREALEKIAKHIKEEA
B4: GBRAP_128_3182 (protein)
chain: SVEEVVKKTREAMEKIKNSSPEEARKIAEELFDWLKTLSLEEAEAAVEEIKKLLPELSPEHLEIIADVAREHRPTFTPEKAELVADVEVEALNLLEEKEE
B5: GBRAP_160_4715 (protein)
chain: EERAKKLIEFVNEEFEEAKELIKGESIEQRAIIIEGTVGEIIMEFFEDENASDELIDEVLKIGDEAVATLLANPDLTDEEIEALLDEAREKIKEAIKKHL
B6: GBRAP_160_4214 (protein)
chain: SEKIEKIIEELREETEEVIESIPELSPEEVANLADVEFGSVLMEAVDLGEENDEILDVIAEAADRAVELLLSNKDASPEELAKGLREIAEEAIERIKKIA
B7: GBRAP_184_5040 (protein)
chain: KIFEETIEFNNLEELKKKLEELKEKVKNHKGKLIVHVIAPKFTKEMVKTLMEKLKEIKDKGYAKEVTVGLDGDMSEEVIDLAVKLADEAGINLVLALDEE
B8: GBRAP_160_4558 (protein)
chain: SEEREKAIEEIRELLEESIELMKDLSPEEIVTLWEGTLGEALAIVFESDAFTDEEEEVAGEEADRARARMRAARDLSPEELVALAREEAERLIEALRELE
B9: GBRAP_150_3921 (protein)
chain: DLEEALLIASTLIDILEAILDGELSLLPHALKLAKDLLEEAKEISEEIKKLAEELLKLLEKAQKLLKAGGDKKEILKLVEEALKVAREIEKKLEELIKKS
B10: GBRAP_83_6936 (protein)
chain: KEKITVVANSDTIKEAFEIAIDLHKEEGLEVELEVSITREDIPLLLEEFEKLAKAGVDVELNILLTGATEEEAEKLKKELEEIAKKYGVKAKINVELVEP
B11: GBRAP_160_4533 (protein)
chain: SESLEKWEELLEETAEEAIELVEGETAEQRATIVDVEFGSFALELAEDERASDEMVDVVLKTRDELVETILANPDLTDEELEELIEEAVEKTIEELKKLF
B12: GBRAP_95_7019 (protein)
chain: DDDQLAADSLAEVLETYVELGEEEKAYEAAKELVKVIAEDPSVKFPSDLSPESARIIAKAAIENLSKEDAARVLETLAASAKDPEVKAIAEAALAEVKAK
B13: GBRAP_57_6451 (protein)
chain: MTKEEKAEKIAEKAIKAVTETDDKELALKYFEELLKLLSKESLLDVLLIVDPSARADLSKEELIERIVEIAKKYLDAGDKQGFLDLIDLVLGQIDMEASE
B14: GBRAP_78_6713 (protein)
chain: EVEKLLEEAIKTLNEAAKAALELPEERANEILDLLVEAANLLHEVMEEGVSKEEALKLLEEAKKLLEKALKLLGEEDKELRKLVEEAIKLVEKAIKKLKE
B15: GBRAP_125_3055 (protein)
chain: SREEAIENLLRFAKRLGLSEDDVEYLRELAKAGSVKNTLIAIALALGYEELADALEKLTEEEVIELLKRLSEELEANPELTPEEVKELALELAKELLEKR
B16: GBRAP_166_4984 (protein)
chain: MEEELVEELKKYLEELAEKMKEAGPEERQELVAEAAERLAEAREKGLSREKLGELVEYLLRLAREVGIPISAVEGALSILADLDEEEIDILDEAARRVAA
B17: GBRAP_184_5036 (protein)
chain: KVFEATIEAENKEELEAKLAALAEEVKGTGADLIVLADLENPTKEMVTTLLEGLGAMKKAGDVSSVTIGFRRELSEEVTDVAIETGDKYGVKVVLPISDE
B18: GBRAP_128_3324 (protein)
chain: MDEAAIEEAKRLAEEMVKASIEEAKELTKRFVALLGTLTPEEREIAAEIFEEELKKLSAEKLEAVADTLREQRPTLDPETAEVVADLEVEALNEAEEKEE
B19: GBRAP_52_6138 (protein)
chain: MEEELRAKAEEIIALVKAGKLEEARALARELAESLNDEELRLFADEFAKLIKELPKEELDAAAEALDIIVDELEAVGHDEELISYLLGKGTKAMYEVELK

target: GABARAP, O95166; assay: median log2 fold change of GCK-ALFA target abundance (FLAG IP / Myc IP barcode read proportion) (log2 ratio); each designed protein is fused to an ALFA-tag nanobody in HEK293 cells to bring the named protein to FLAG-tagged glucokinase (GCK); Myc marks an untargeted standard; higher = target protein stabilised (more abundant); conditions: target protein: 3xFLAG-MCP-GCK-ALFA reporter; HEK293 landing pad (RPLP)
Sequence (O95166 whole entry, the tested form may be a part): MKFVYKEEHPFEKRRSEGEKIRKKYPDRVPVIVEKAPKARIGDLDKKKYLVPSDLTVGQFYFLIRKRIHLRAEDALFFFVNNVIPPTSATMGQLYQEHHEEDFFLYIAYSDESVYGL
Outline: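 The readout is target abundance, the per-binder median log2 ratio of FLAG to Myc barcode read proportions. It came from HEK293 landing-pad cells carrying a recombined ALFA-nanobody-fused binder library, induced with 2 μg mL^−1 doxycycline and transfected with a plasmid for a FLAG-tagged target and a Myc-tagged standard. After 48 h, lysates were immunoprecipitated with anti-FLAG and anti-Myc, and circular RNA barcodes were reverse transcribed, amplified and sequenced. Each barcode needed a proportion of at least 10^−7 in both replicates and each binder at least 3 barcodes per replicate, a pseudocount of 10^−6 was added, and the replicates were pooled.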

Row | Binder | median log2 fold change
1 | B1 | -0.473
2 | B2 | 0.0962
3 | B3 | 0.14
4 | B4 | 0.238
5 | B5 | 0.156
6 | B6 | -0.179
7 | B7 | 0.311
8 | B8 | -0.0658
9 | B9 | -0.0556
10 | B10 | 0.0302
11 | B11 | -0.528
12 | B12 | 0.216
13 | B13 | 0.297
14 | B14 | 0.142
15 | B15 | -0.0884
16 | B16 | 0.23
17 | B17 | -0.117
18 | B18 | 0.164
19 | B19 | 0.101
